Structures are written as SMILES. Out of some 150,000 compounds screened, about 540 (0.36%) showed an effect of 50% or more. Some of the results follow.

The test relates to Plasmodium falciparum. Kind of test: Primary screen in NF54 nanoGlo assay, in single point, at 2uM, 72h; a lower Z score goes with more inhibition. Type of test: functional, Erythrocyte. The conditions noted are these: timepoint 72 hour.
Usually % Inhibition stands for the relative decrease from the control value, in per cent. For `CCCC(=O)N1CCC2(CC1)NCCc1c2[nH]c2ccccc12`, the “% Inhibition” value was -7% and the Z score came to 0.89.

Consider `Cc1nc(N)sc1Cc1nc(-c2cccc3c2ccn3C)nn1CCO`, for which the “% Inhibition” value is on record as -2% and the Z score turned out to be 0.3.

On to `COc1cc([C@@H]2OC(c3cccc(C)c3O)=NN2C(C)=O)ccc1OCc1ccccc1`, for which the “% Inhibition” value is -1% and the Z score stood at 0.12.

As to `CN(C)c1cnn(CC(=O)NC2CCCCCCC2)c(=O)c1`, the “% Inhibition” value was -3% and the Z score is listed as 0.69.

As to `Cc1noc2nc(C3CC3)cc(C(=O)N3CCN(C)C[C@@H]3C)c12`, the “% Inhibition” value is -2% and the Z score is given as 0.27.

Regarding `CC1(C)O[C@@H]2C[C@@](OCc3cccc(Cl)c3)(C(=O)NCCN3CCOCC3)CC(OCc3ccccc3)[C@@H]2O1` (some centres undefined), the “% Inhibition” value was -10% and the Z score was 1.77.

Regarding `CCCN(CC1CC1)C(=O)CCc1ccc(-c2ccc(C)cc2C)n1-c1ccc(CC#N)cc1`, the “% Inhibition” value was -14% and the Z score worked out at 1.84.

On to `O=C(CCc1nc(C2CCCC2)no1)N1CCOc2cccc(F)c21`, for which the “% Inhibition” value came out at 1% and the Z score is -0.24.

Take `Cc1ccc(C2CCCC2OC(=O)Cn2ccc(=O)n(C)c2=O)cc1` (centres undefined): the “% Inhibition” value was found to be 0% and the Z score is reported as 0.07.

As for `O=C(C1CC=CC1)N1CCc2ccccc2C1`, the “% Inhibition” value was found to be 23% and the Z score was -2.59.

Take `N#Cc1c(NC(=O)c2cc(S(=O)(=O)N3CCCCC3)ccc2Cl)sc2c1CCC2`: the “% Inhibition” value was -45% and the Z score was found to be 5.24.

In the case of `Cc1ccn(CCc2nc(C)nn2-c2cccc(C(=O)O)c2)n1`, the “% Inhibition” value is listed as -4% and the Z score is 0.5.

For the compound `NC(=O)[C@@H](F)C1CCN(Cc2cc(Cl)sc2Cl)CC1`, the “% Inhibition” value was -5% and the Z score worked out at 0.71.

Turning to `N#Cc1cccc(-c2c(-c3ccccc3)ncn2Cc2ccc(CO)cc2)c1`, the “% Inhibition” value came out at 13% and the Z score is reported as -1.84.

In the case of `CCc1cccc(NC(=O)CNC2(CC(=O)OC)CCOCC2)c1`, the “% Inhibition” value was -5% and the Z score is reported as 0.62.

For the compound `COc1ccccc1N1CCN(C(=O)c2cc(Cl)sc2Cl)CC1`, the “% Inhibition” value came to 4% and the Z score is -0.69.

Consider `Cc1cc(-c2cc([C@H]3CCN(C(=O)C4CC(=O)C4)C3)ccn2)ccc1F`, for which the “% Inhibition” value is on record as -7% and the Z score was found to be 1.32.

With `O=C(NC1(c2noc(CC3CCCC3)n2)CCCCCC1)c1cccc[n+]1[O-]`, the “% Inhibition” value was -11% and the Z score turned out to be 1.37.

For the compound `Cc1nc([C@H](C)NC(=O)CCN2CCCC2)n[nH]1`, the “% Inhibition” value is recorded as 1% and the Z score is on record as -0.21.

Turning to `N#CCN(CC#N)C(=O)c1ccc(-n2ncc3ccccc32)c(Cl)c1`, the “% Inhibition” value was -30% and the Z score was determined as 3.51.

Regarding `CS(=O)(=O)N[C@@H]1COCC[C@@H]1Oc1ccc(F)cc1`, the “% Inhibition” value is reported as -17% and the Z score came out at 1.54.

In the case of `CCN(CC)c1ccc(C(=O)n2nc(C(F)(F)F)nc2N)cn1`, the “% Inhibition” value is 2% and the Z score is recorded as -0.39.

Regarding `COC(=O)C1=C(C(=O)OC)SC(=C2C(=S)C(C)(C)N(C(=O)Cc3ccccc3)c3ccc(OC)cc32)S1`, the “% Inhibition” value was 0% and the Z score is listed as -0.01.

For the compound `CN(C)C[C@H]1CN(CC(=O)NCCOc2ccccc2)CCO1`, the “% Inhibition” value is -8% and the Z score stood at 1.18.

On to `CO[C@@H](C)CC(=O)N1CCc2ncccc21`, for which the “% Inhibition” value is given as -6% and the Z score stood at 1.01.

As for `NC(=NC[C@@H]1CC=CCC1)N1CCCCC1`, the “% Inhibition” value is listed as -8% and the Z score is 1.1.

With `CC(C)N1CC[C@H](NCCC(C)(C)C)C1=O`, the “% Inhibition” value was -13% and the Z score is 1.63.

Regarding `CCn1nc(COc2ccccc2OC)nc1[C@H](C)N1CCN(C)CC1`, the “% Inhibition” value was -3% and the Z score is 0.53.

With `CCOC(=O)c1nc[nH]c1-n1nc(-c2ccc(OC)cc2)cc1C(F)(F)F`, the “% Inhibition” value is -32% and the Z score was 3.76.

`NC(=O)Cc1nc(CC(F)(F)F)n(C2CCCCC2)n1`: the “% Inhibition” value is given as 0% and the Z score worked out at 0.02.

For the compound `CCOc1cc(C(=O)N(C)C)ccc1NCc1cc(C)oc1C`, the “% Inhibition” value was -2% and the Z score is 0.17.

Turning to `Cc1cc2ncn([C@@H](C)C(=O)N3CCCCCC3)c2cc1C`, the “% Inhibition” value is reported as -8% and the Z score is 1.3.

`CCC1=NO[C@@H](CN2CCN(CC)C(C)(C)C2)C1`: the “% Inhibition” value is listed as -7% and the Z score turned out to be 1.26.

As for `COc1ccc(CCC(=O)N[C@H]2CCOC[C@@H]2O)cc1`, the “% Inhibition” value was -18% and the Z score is 3.34.

For the compound `CC[C@@]1(C)CCCN(C(=O)CNS(=O)(=O)CC)CC1`, the “% Inhibition” value is given as -5% and the Z score stood at 0.42.

As to `COc1cc(C(=O)Nc2ccc(-c3ccc(N4CCCCC4)nn3)cc2)cc(OC)c1OC`, the “% Inhibition” value is on record as 25% and the Z score is -3.14.

Regarding `CC[C@H](NC1CCN(c2nnc(-c3ccccc3)s2)CC1)c1ccnn1C`, the “% Inhibition” value was -15% and the Z score came to 1.46.

Take `CCc1nccn1CCc1nc(C(C)C)nn1-c1ccncc1C`: the “% Inhibition” value was -15% and the Z score stood at 2.3.

`CC(C)(C)c1ccc(OCCn2c3ccccc3n3c(=O)c(CCC(=O)O)nnc23)cc1`: the “% Inhibition” value is on record as -8% and the Z score was found to be 1.06.

Turning to `Cc1cccc(CN2CCCCCNC(=O)[C@@H]3CCC[C@@H]32)c1`, the “% Inhibition” value is -3% and the Z score turned out to be 0.35.

Regarding `COc1ccc(C(=O)N2CC(O)(C(F)F)C2)cn1`, the “% Inhibition” value is listed as -9% and the Z score came to 1.39.

`COCc1cn([C@@H]2CC[C@H]3CCOc4ccccc4C(=O)N4CCN(C(C)C)C[C@H]4C(=O)NC[C@H]2O3)nn1`: the “% Inhibition” value is on record as -9% and the Z score is given as 1.17.

For `CCN(Cc1cnn(C)c1)c1ccc(C#N)nc1`, the “% Inhibition” value is recorded as 0% and the Z score is listed as 0.05.

As to `Cn1nc2c(c1CNC(=O)c1cncc(Br)c1)CCC2`, the “% Inhibition” value is -4% and the Z score is recorded as 0.57.

In the case of `Cc1cccc(NC(=O)c2c(C)sc3ncnc(N4CCCCC4)c23)c1`, the “% Inhibition” value is given as 41% and the Z score is -5.91.

With `COc1ccc(S(=O)(=O)c2c(C)c(C)n(Cc3ccco3)c2NC(=O)C(C)C)cc1`, the “% Inhibition” value is on record as -13% and the Z score was found to be 1.68.

As to `Cc1nc(-c2ccncc2)nc(NCCN2C(=O)Cc3ccccc32)c1C`, the “% Inhibition” value is listed as -6% and the Z score came out at 1.14.

Turning to `CCC(C)(C)c1ccc(OCCCCNC(=O)c2cc(-c3ccccc3F)nn2-c2ccc(C)cc2C)c(C(C)(C)CC)c1`, the “% Inhibition” value was -14% and the Z score is reported as 1.63.

On to `Cc1nc(-c2ccc(CNC(=O)c3cccc(CCC(C)(C)O)c3)cc2)no1`, for which the “% Inhibition” value was -2% and the Z score turned out to be 0.25.

As for `O=S(=O)(N[C@@H](CCO)c1cccs1)c1cc2cc(Cl)ccc2s1`, the “% Inhibition” value was found to be 0% and the Z score was 0.05.

`O=C(c1cnn[nH]1)N1CCC[C@H](c2nc(-c3cccnc3)no2)C1`: the “% Inhibition” value is reported as -15% and the Z score is listed as 3.14.

For the compound `Cc1nn(Cc2ccccc2)c2c1C(c1cccc(Cl)c1Cl)c1c(C)nn(Cc3ccccc3)c1O2`, the “% Inhibition” value came out at 42% and the Z score is listed as -6.02.

Source of the values: ChEMBL document CHEMBL4888484, “Replenishing the malaria drug discovery pipeline: Screening and hit evaluation of the MMV Hit Generation Library 1 (HGL1) against asexual blood stage Plasmodium falciparum ,using a nano luciferase reporter read-out” (2022).
